According to PubChem BioAssay (Tox21):
“And” between values parts separate entries of the source, which are not always exact repeats. Equal entries are not always repeated. Inconclusive results, whose numbers are uncertain, are shown with a selection of clear calls. Potencies of inconclusive entries are doubtful fits and often do not repeat. Some compounds were tested as several samples or in several runs, with calls that do not always agree. The source made the active and inactive calls. Unless noted, calls come from the whole dose curve; as a rule, active = well fitted curve in the direction sought with a large enough effect in the repeat runs; inconclusive = weak or mixed curves; inactive = no such curve, though single readings can be large; an effect the other way counts as inactive or inconclusive.

Key:
[1] = molecular target: Progesterone receptor (Homo sapiens) (UniProt P06401); test: qHTS assay to identify small molecule antagonists of the progesterone receptor (PR) signaling pathway (AID 1346795; active = well fitted inhibition curve with a large enough effect in the signal ratio in the repeat runs, not every such curve was filed as active; inconclusive = weak or mixed curves; the % refers to the signal ratio; for activity change, negative = inhibition: % is set by controls: 0 for no effect and ±100 for the full control effect); settings: PR-UAS-bla HEK293T, beta-lactamase FRET ratio, 16 h; activity change, negative = inhibition: at 92.4 µM (top of the series) unless noted
In short: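 In HEK293T cells bearing the PR-UAS-bla reporter, compound effects on promegestone-driven (1 nM) beta-lactamase expression are assessed after 16 hr using a fluorescent FRET substrate incubated 2 hr at room temperature.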

[2] = qHTS assay to identify small molecule agonists of the progesterone receptor (PR) signaling pathway - cell viability counter screen (AID 1346799; calls by dose curve; note: nearly all actives have a fitted effect of over 45% in size; for activity change, negative = cytotoxicity: % is set by controls: 0 for no effect and ±100 for the full control effect)
In short: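 Here, 3,000 PR-UAS-bla HEK293T cells per well were treated with compounds for 16 hr after a 6 hr preincubation at 37C and 5% CO2; cell viability is the CellTiter-Glo luminescence signal.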

[3] = Caspase-3/7 induction in CHO-K1 cells by small molecules, qHTS cell viability counter screen (AID 1346979); settings: CellTiter-Fluor fluorescence, 17 h; activity change, negative = cytotoxicity: at 92.4 µM (top of the series); note: nearly all actives have a fitted effect of over 35% in size; for activity change, negative = cytotoxicity: % is set by controls: 0 for no effect and ±100 for the full control effect
In short: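 CellTiter-Fluor viability check, qHTS format: wild-type CHO-K1, 16hr compound treatment, 1hr reagent incubation, fluorescence read.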

[4] = Caspase-3/7 induction in HepG2 cells by small molecules, qHTS cell viability counter screen (AID 1346981); note: nearly all actives have a fitted effect of over 30% in size; for activity change, negative = cytotoxicity: % is set by controls: 0 for no effect and ±100 for the full control effect
In short: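 Counter screen for cytotoxicity: HepG2 exposed 16 hr to compounds, then CellTiter-Fluor viability signal (fluorescence, 1 hr reagent incubation).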

[5] = molecular target: Cytochrome P450 2D6 (Homo sapiens) (UniProt P10635); test: Cytochrome P450 Family 2 Subfamily D Member 6 (CYP2D6) small molecule antagonists: luciferase reporter qHTS assay (AID 1671196); note: nearly all actives have a fitted effect of over 50% in size
In short: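 Inhibition of CYP2D6 was gauged by loss of luminescence, since light produced tracks the luciferin generated from a proluciferin substrate. A 10 min room-temperature preincubation preceded 1 h NADPH-supported turnover.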

[6] = molecular target: Cytochrome P450 2C9 (Homo sapiens) (UniProt P11712); test: Cytochrome P450 Family 2 Subfamily C Member 9 (CYP2C9) small molecule antagonists: luciferase reporter qHTS assay (AID 1671198); note: nearly all actives have a fitted effect of over 50% in size
In short: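 CYP2C9 activity was measured with a P450-Glo proluciferin substrate. Enzyme–substrate mix was held with compound for 10 min at room temperature, then NADPH regeneration solution was added for 1 h at 37C. Luciferin product was read as luminescence.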

[7] = molecular target: Nuclear receptor subfamily 1 group I member 2 (Homo sapiens) (UniProt O75469); test: Human pregnane X receptor (PXR) small molecule agonists, qHTS assay (AID 1346982); note: nearly all actives have a fitted effect of over 35% in size
In short: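 Luminescence (ONE-Glo, 30 min RT) after 24 hr compound exposure of PXR-Luc HepG2 cells; cells rested 5 hr post-plating in 5% charcoal-stripped FBS medium.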
Potency is the fitted concentration of half-maximal effect; tags give direction and shape of the fitted curve.

Sequence of UniProt P06401 (P06401 whole entry, looked up): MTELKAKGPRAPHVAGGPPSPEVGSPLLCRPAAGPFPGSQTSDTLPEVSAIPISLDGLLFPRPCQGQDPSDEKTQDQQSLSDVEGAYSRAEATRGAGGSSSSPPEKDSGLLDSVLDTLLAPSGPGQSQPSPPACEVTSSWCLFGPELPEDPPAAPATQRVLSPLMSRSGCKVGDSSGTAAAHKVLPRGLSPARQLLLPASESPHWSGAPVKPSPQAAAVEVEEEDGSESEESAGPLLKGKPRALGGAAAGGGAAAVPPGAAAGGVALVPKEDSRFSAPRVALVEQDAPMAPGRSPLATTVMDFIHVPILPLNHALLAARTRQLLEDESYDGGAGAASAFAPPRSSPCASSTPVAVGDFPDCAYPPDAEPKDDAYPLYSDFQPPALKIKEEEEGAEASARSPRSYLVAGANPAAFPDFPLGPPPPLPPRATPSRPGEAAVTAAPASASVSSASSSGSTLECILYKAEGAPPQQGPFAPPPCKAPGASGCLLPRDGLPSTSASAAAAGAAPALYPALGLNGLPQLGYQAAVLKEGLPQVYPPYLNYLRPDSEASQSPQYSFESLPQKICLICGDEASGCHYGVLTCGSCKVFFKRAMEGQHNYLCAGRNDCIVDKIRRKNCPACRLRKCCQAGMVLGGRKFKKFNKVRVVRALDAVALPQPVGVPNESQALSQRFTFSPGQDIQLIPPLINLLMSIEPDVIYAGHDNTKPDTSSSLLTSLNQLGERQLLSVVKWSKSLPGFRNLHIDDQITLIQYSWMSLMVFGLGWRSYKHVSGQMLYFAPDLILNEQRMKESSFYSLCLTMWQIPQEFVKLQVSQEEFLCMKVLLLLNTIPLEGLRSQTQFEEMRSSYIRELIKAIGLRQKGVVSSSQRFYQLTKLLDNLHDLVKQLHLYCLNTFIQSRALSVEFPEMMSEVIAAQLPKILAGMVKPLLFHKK
Sequence of UniProt P11712 (P11712 whole entry, looked up): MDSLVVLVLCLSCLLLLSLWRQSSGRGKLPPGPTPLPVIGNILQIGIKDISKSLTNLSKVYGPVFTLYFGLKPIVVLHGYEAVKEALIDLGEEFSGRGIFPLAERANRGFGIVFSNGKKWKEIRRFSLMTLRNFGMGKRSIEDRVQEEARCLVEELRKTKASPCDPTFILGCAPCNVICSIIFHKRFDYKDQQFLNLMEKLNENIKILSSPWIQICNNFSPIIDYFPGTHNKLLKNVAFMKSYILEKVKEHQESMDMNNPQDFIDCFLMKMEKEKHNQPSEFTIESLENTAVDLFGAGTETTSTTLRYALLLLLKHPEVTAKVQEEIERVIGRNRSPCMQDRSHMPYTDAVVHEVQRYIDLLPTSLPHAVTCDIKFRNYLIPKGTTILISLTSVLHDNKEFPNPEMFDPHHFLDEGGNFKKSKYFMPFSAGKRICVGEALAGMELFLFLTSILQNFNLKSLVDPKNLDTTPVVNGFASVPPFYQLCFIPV
Sequence of UniProt P10635 (P10635 whole entry, looked up): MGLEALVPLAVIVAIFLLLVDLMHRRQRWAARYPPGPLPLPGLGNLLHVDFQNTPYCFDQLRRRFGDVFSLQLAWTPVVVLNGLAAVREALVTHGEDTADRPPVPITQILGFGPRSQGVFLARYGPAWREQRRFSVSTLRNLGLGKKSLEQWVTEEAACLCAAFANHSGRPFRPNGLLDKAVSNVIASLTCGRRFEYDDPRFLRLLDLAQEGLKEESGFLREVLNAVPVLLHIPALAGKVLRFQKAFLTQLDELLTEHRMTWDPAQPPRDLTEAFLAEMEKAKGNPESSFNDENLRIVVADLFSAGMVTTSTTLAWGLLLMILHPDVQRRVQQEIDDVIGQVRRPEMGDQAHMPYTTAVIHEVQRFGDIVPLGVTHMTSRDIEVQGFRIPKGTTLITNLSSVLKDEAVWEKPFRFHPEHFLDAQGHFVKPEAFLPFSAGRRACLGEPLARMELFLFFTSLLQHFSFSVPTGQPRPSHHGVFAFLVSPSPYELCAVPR
Sequence of UniProt O75469 (O75469 whole entry, looked up): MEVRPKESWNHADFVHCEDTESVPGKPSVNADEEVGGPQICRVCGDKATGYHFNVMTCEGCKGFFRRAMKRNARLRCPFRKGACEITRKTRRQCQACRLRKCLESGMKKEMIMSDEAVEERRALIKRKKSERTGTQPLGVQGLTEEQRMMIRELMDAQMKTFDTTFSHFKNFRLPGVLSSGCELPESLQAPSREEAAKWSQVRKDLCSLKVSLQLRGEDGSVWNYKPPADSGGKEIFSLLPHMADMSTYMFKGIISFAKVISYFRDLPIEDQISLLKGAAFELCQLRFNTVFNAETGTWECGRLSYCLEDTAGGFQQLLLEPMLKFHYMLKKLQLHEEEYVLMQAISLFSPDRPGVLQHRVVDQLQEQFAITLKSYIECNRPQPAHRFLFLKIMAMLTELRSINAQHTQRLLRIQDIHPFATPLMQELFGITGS

| Compound | activity change, negative = inhibition [1] | Potency [2] | Potency [3] | Potency [4] | Potency [5] | Potency [1] | Potency [6] | Potency [7] |
| --- | --- | --- | --- | --- | --- | --- | --- | --- |
| CCCNCCC | inconclusive: 10.3% | inactive | inactive | inactive | inconclusive: 50.5 µM [inhibitor, partial curve] |  |  |  |
| CCc1nnc(NS(=O)(=O)c2ccc(N)cc2)s1 |  | inconclusive: 0.0596 µM [rising, partial curve] |  |  |  | inactive | inconclusive: 27.5 µM [inhibitor, partial curve] |  |
| C=CCCCCCCCCCC | inconclusive: 15% | inactive |  | inactive |  |  |  |  |
| O=Cc1ccc([N+](=O)[O-])cc1 |  | inconclusive: 27.5 µM [cytotoxic, partial curve, poor fit] |  |  | inconclusive: 71.4 µM [inhibitor, partial curve, poor fit] | inactive | inconclusive: 63.7 µM [inhibitor, partial curve] | inconclusive: 69 µM [activator, single point] |
| COc1cc(NS(=O)(=O)c2ccc(N)cc2)nc(OC)n1 |  | inconclusive: 16.8 µM [cytotoxic, single point] | inactive |  |  | inactive |  |  |
| O=c1[nH]cc(F)c(=O)[nH]1 |  | active: 28.3 µM and inactive | inconclusive: 40 µM [cytotoxic, partial curve] and inconclusive: 7.87 µM [cytotoxic, full curve] and inconclusive: 29.8 µM [cytotoxic, single point] | inconclusive: 56.5 µM [cytotoxic, partial curve] and inconclusive: 24.9 µM [cytotoxic, partial curve, poor fit] |  | inconclusive: 11.3 µM [rising, partial curve] | inconclusive: 36.9 µM [inhibitor, partial curve] |  |
